The supplement of paper PMC6657886

Tests used:
Assay in all cases: Agar dilution on enriched GC agar; resistance determinants by microarray.
benzylpenicillin = compound: CC1(C)S[C@@H]2[C@H](NC(=O)Cc3ccccc3)C(=O)N2[C@H]1C(=O)O [benzylpenicillin]
spectinomycin = compound: CN[C@@H]1[C@H](O)[C@H](NC)[C@H]2O[C@@]3(O)C(=O)C[C@@H](C)O[C@H]3O[C@@H]2[C@H]1O [spectinomycin]
azithromycin = compound: CC[C@H]1OC(=O)[C@H](C)[C@@H](O[C@H]2C[C@@](C)(OC)[C@@H](O)[C@H](C)O2)[C@H](C)[C@@H](O[C@@H]2O[C@H](C)C[C@H](N(C)C)[C@H]2O)[C@](C)(O)C[C@@H](C)CN(C)[C@H](C)[C@@H](O)[C@]1(C)O [azithromycin]
tetracycline = compound: CN(C)[C@@H]1C(O)=C(C(N)=O)C(=O)[C@@]2(O)C(O)=C3C(=O)c4c(O)cccc4[C@@](C)(O)[C@H]3C[C@@H]12 [tetracycline]
ceftriaxone = compound: CO/N=C(\C(=O)N[C@@H]1C(=O)N2C(C(=O)O)=C(CSc3nc(=O)c(O)nn3C)CS[C@H]12)c1csc(N)n1 [ceftriaxone]

## Neisseria gonorrhoeae isolate 31 (blaTEM plasmid: no, gyrA: wild type, mtrR promoter: wild type, parC: wild type, penA: ins345Asp, ponA: wild type, porB: wild type, rpsJ: wild type, tetM plasmid: no)
benzylpenicillin
  MIC: ≤ 0.015 µg/mL
spectinomycin
  MIC: 16 µg/mL
azithromycin
  MIC: 0.25 µg/mL
tetracycline
  MIC: 0.25 µg/mL
ceftriaxone
  MIC: ≤ 0.002 µg/mL

## Neisseria gonorrhoeae isolate 68 (blaTEM plasmid: no, gyrA: Phe91, Gly95, mtrR promoter: wild type, parC: Arg87, Glu91, penA: ins345Asp, ponA: wild type, porB: Asn120, Asp121, rpsJ: Met57, tetM plasmid: no)
benzylpenicillin
  MIC: 0.5 µg/mL
spectinomycin
  MIC: 16 µg/mL
azithromycin
  MIC: 0.5 µg/mL
tetracycline
  MIC: 2 µg/mL
ceftriaxone
  MIC: 0.008 µg/mL

## Neisseria gonorrhoeae isolate 134 (blaTEM plasmid: no, gyrA: wild type, mtrR promoter: wild type, parC: wild type, penA: ins345Asp, ponA: wild type, porB: wild type, rpsJ: wild type, tetM plasmid: no)
benzylpenicillin
  MIC: 0.12 µg/mL
spectinomycin
  MIC: 16 µg/mL
azithromycin
  MIC: 0.25 µg/mL
tetracycline
  MIC: 0.5 µg/mL
ceftriaxone
  MIC: 0.004 µg/mL

## Neisseria gonorrhoeae isolate 272 (blaTEM plasmid: no, gyrA: Phe91, Gly95, mtrR promoter: -35delA, parC: Arg87, Glu91, penA: ins345Asp, ponA: Pro421, porB: wild type, rpsJ: Met57, tetM plasmid: no)
benzylpenicillin
  MIC: 0.5 µg/mL
spectinomycin
  MIC: 32 µg/mL
azithromycin
  MIC: 0.03 µg/mL
tetracycline
  MIC: 2 µg/mL
ceftriaxone
  MIC: 0.06 µg/mL

## Neisseria gonorrhoeae isolate 184 (blaTEM plasmid: no, gyrA: wild type, mtrR promoter: wild type, parC: wild type, penA: ins345Asp, ponA: wild type, porB: wild type, rpsJ: wild type, tetM plasmid: no)
benzylpenicillin
  MIC: 0.03 µg/mL
spectinomycin
  MIC: 16 µg/mL
azithromycin
  MIC: 0.12 µg/mL
tetracycline
  MIC: 0.06 µg/mL
ceftriaxone
  MIC: 0.008 µg/mL

## Neisseria gonorrhoeae isolate 88 (blaTEM plasmid: no, gyrA: Phe91, Asn95, mtrR promoter: -35delA, parC: Arg87, Glu91, penA: wild type, ponA: Pro421, porB: wild type, rpsJ: Met57, tetM plasmid: no)
benzylpenicillin
  MIC: 1 µg/mL
spectinomycin
  MIC: 32 µg/mL
azithromycin
  MIC: 0.25 µg/mL
tetracycline
  MIC: 1 µg/mL
ceftriaxone
  MIC: 0.004 µg/mL

## Neisseria gonorrhoeae isolate 217 (blaTEM plasmid: no, gyrA: wild type, mtrR promoter: wild type, parC: wild type, penA: ins345Asp, ponA: wild type, porB: wild type, rpsJ: wild type, tetM plasmid: no)
benzylpenicillin
  MIC: 0.03 µg/mL
spectinomycin
  MIC: 32 µg/mL
azithromycin
  MIC: 0.008 µg/mL
tetracycline
  MIC: 0.12 µg/mL
ceftriaxone
  MIC: ≤ 0.002 µg/mL

## Neisseria gonorrhoeae isolate 489 (blaTEM plasmid: no, gyrA: Phe91, Asn 95, mtrR promoter: -35delA, parC: wild type, penA: ins345Asp, ponA: Pro421, porB: Asn120, Asp121, rpsJ: Met57, tetM plasmid: no)
benzylpenicillin
  MIC: 1 µg/mL
spectinomycin
  MIC: 16 µg/mL
azithromycin
  MIC: 0.25 µg/mL
tetracycline
  MIC: 1 µg/mL
ceftriaxone
  MIC: 0.03 µg/mL

## Neisseria gonorrhoeae isolate 457 (blaTEM plasmid: no, gyrA: Phe91, Asn95, mtrR promoter: wild type, parC: Arg87, Glu91, penA: ins345Asp, ponA: Pro421, porB: wild type, rpsJ: Met57, tetM plasmid: no)
benzylpenicillin
  MIC: 0.12 µg/mL
spectinomycin
  MIC: 16 µg/mL
azithromycin
  MIC: 0.12 µg/mL
tetracycline
  MIC: 0.5 µg/mL
ceftriaxone
  MIC: ≤ 0.002 µg/mL

## Neisseria gonorrhoeae isolate 15 (blaTEM plasmid: no, gyrA: Thr91, Gly95, mtrR promoter: wild type, parC: wild type, penA: ins345Asp, ponA: wild type, porB: wild type, rpsJ: Met57, tetM plasmid: no)
benzylpenicillin
  MIC: 0.12 µg/mL
spectinomycin
  MIC: 16 µg/mL
azithromycin
  MIC: 0.06 µg/mL
tetracycline
  MIC: 0.5 µg/mL
ceftriaxone
  MIC: ≤ 0.002 µg/mL

MIC of clinical N. gonorrhoeae isolates (2015-2017) by agar dilution on GC agar with 1% IsoVitaleX (ranges not stated); higher = less susceptible. No active / inactive call per row; the paper counts benzylpenicillin above 1 and ceftriaxone above 0.125 mg/L as resistant (EUCAST). The method is stated for benzylpenicillin and ceftriaxone and assumed for the other drugs. '<=' is inferred from pile-ups at the end values. Isolates are numbered anew.
